According to PubChem BioAssay AID1030 (National Center for Advancing Translational Sciences (NCATS), 2008):
About 16,000 (7.3%) of roughly 220,000 compounds were called active. Inconclusive means that the source gave no clear call. Such entries were picked first, then a sample of the others. Calls follow the shape of the dose curve; as a rule, active = well fitted inhibition curve with a large enough effect (not every such curve was filed as active); inconclusive = small, poorly fitted or top-dose-only effect, or another doubt; inactive = no such curve, though single readings can be large or run the other way. Potencies of inconclusive entries are left out as doubtful fits.

Biological target: Aldehyde dehydrogenase 1A1 (Homo sapiens) (UniProt P00352)
Experiment: qHTS Assay for Inhibitors of Aldehyde Dehydrogenase 1 (ALDH1A1);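 as to activity, negative = inhibition: plate controls were no enzyme wells and a reference inhibitor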
Conditions: Purified ALDH1A1, NADH fluorescence, propionaldehyde substrate; series mostly up to 75.3 µM; activity, negative = inhibition: at the top concentration
Potency is read from the fitted curve at half-maximal effect; tags tell the direction and shape of the fitted curve.

Chain of UniProt P00352 (P00352 whole entry, looked up): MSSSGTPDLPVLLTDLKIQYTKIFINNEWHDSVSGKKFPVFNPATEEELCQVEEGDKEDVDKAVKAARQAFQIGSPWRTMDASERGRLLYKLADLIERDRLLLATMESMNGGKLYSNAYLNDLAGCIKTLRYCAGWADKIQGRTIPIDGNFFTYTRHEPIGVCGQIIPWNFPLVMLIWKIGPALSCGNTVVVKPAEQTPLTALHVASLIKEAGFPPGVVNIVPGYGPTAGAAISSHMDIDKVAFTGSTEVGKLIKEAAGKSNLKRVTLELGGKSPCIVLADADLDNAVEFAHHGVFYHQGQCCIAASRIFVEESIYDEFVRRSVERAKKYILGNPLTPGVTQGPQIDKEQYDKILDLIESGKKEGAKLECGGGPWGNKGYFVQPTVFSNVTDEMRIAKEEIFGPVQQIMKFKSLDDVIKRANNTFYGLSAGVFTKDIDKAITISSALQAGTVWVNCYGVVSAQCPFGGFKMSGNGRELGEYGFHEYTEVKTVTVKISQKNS

Structure (SMILES) | Potency | activity, negative = inhibition
CCOC(=O)c1cc(-c2ccc(C#N)cc2)nc2c1c(C)nn2CCC#N | inconclusive [inhibitor, partial curve] | 
Cc1ccc2ncccc2c1NC(=S)NC(=O)c1ccccc1 | inconclusive [inhibitor, single point] | 
CCOc1ccc(S(=O)(=O)N(C)C)cc1-c1nc2c(C(C)(C)C)nn(C)c2c(=O)[nH]1 | inconclusive [inhibitor, single point] | 
CCOc1ccc(NC(=S)NNc2ccnc3cc(Cl)ccc23)cc1 | active: 3.16 µM | 
CCOc1cc(C(=O)Nc2ccccc2N2CCN(S(C)(=O)=O)CC2)cc(OCC)c1OCC |  | inactive: -3.34%
COC(=O)Cn1c2ccc(F)cc2c2nc(C)sc21 | inconclusive [inhibitor, single point] | 
O=C(NCC1CCCO1)c1cc(-c2ccc(Cl)cc2Cl)on1 (stereo not drawn) | inconclusive [inhibitor, partial curve] | 
Cc1ccc(C)c(NC(=S)N(C)CCO)c1 |  | inactive: 6.07%
Cc1ccc(C(=O)Nc2ccc(S(=O)(=O)N3CCc4ccccc43)cc2)o1 | inconclusive [inhibitor, single point] | 
O=C(CN(Cc1ccco1)C(=O)CCC(=O)Nc1ccccn1)NCCc1ccccc1 | inconclusive [inhibitor, single point] | 
COc1cc2[nH]c(=O)n(CCCCCC(=O)NCCCN3CCCC3=O)c(=O)c2cc1OC | inconclusive [inhibitor, single point] | 
CCOc1ccc(NC(=O)C2CCC(CNc3c(N4CCC(C)CC4)c(=O)c3=O)CC2)cc1 (stereo not drawn) |  | inactive: 6.81%
Cc1ccc(C)c(NS(=O)(=O)c2cc(C(=O)Nc3ccccc3-c3ccccc3)ccc2C)c1 | inconclusive [inhibitor, single point] | 
COc1ccccc1Cn1cccc1C=O | active: 14.1 µM | 
CCCn1c(=O)[nH]c(=O)c2c(C(F)(F)F)cc(-c3ccc(C)cc3)nc21 | inconclusive [inhibitor, partial curve] | 
N#CCCN(C(=O)COC(=O)c1ccc(CNS(=O)(=O)c2ccc(F)c(Cl)c2)cc1)c1ccc(F)cc1 |  | inactive: 7.19%
C/C=C/COC(=O)c1[nH]c2c(c1C)C(=O)CC(c1ccco1)C2 (stereo not drawn) | inconclusive [inhibitor, single point] | 
CCC(C)c1ccc(O)c(NC(=S)NC(=O)c2cccnc2)c1 (stereo not drawn) | active: 31.6 µM | 
CCCc1c(C)nc2c(OC)cccc2c1SCC(=O)O |  | inactive: -6.3%
CCCCn1c(SCC(=O)Nc2cccc(OC)c2)nc2ccc(N3CCOCC3)cc2c1=O | inconclusive [inhibitor, partial curve] | 
COc1cccc(-n2c(Cc3cc(=O)[nH]c(=O)[nH]3)nnc2SCC(=O)Nc2ccccc2)c1 |  | inactive: -2.15%
O=C(CSc1nc(-c2ccc(F)cc2)cs1)N1CCN(C(=O)c2ccco2)CC1 | active: 14.1 µM | 
CCOc1ncccc1C(=O)OCC(=O)N(CC)c1ccccc1 | inconclusive [inhibitor, single point] | 
CCOC(=S)NC(=O)c1sc2ccccc2c1Cl | active: 0.355 µM | 

Structure (SMILES) | Potency | activity, negative = inhibition
CC1CCCCC12NC(=O)N(CC(=O)Nc1ccccc1N1CCOCC1)C2=O (stereo not drawn) |  | inactive: -10.4%
O=C(Nc1nccs1)c1ccc(S(=O)(=O)NCC2CCCCC2)cc1 |  | inactive: 10.8%
N#CCCn1nc(-c2ccc([N+](=O)[O-])cc2)cc1Nc1ccccc1NC(=O)C(F)(F)F |  | inactive: 5.83%
COC(=O)c1cc(OC)c(OC)cc1-n1cnc2cc(OC)c(OC)cc2c1=O |  | inactive: 9.18%
Cc1cccc(-c2nnc(SCC(=O)C(C)(C)C)n2C)c1 | active: 11.2 µM | 
CSC1(SC2=NCCN2)SC2(NCCN2)S1 | active: 0.0891 µM | 
Cc1ccc(NC2c3ncccc3C(=O)N2Cc2ccco2)c(C)c1 (stereo not drawn) |  | inactive: -2.21%
COc1ccc(C(=O)N2CCC[C@@]3(CCN(Cc4ccncc4)C3)C2)cc1 | active: 28.2 µM | 
O=C(NC1CCCCC1)N(Cc1ccccc1)Cc1ccco1 | inconclusive [inhibitor, partial curve] | 
COc1ccccc1NC(=O)c1sc2nc(-c3ccco3)ccc2c1N | inconclusive [inhibitor, full curve] | 
O=C1COc2ccc(C(=O)CSc3nnc(Cc4cccs4)n3-c3ccc(Cl)cc3)cc2N1 | inconclusive [inhibitor, partial curve] | 
COc1ccc(C(=O)/C(=C\c2ccco2)N2C=CC=CC2=C(C#N)C#N)cc1 | inconclusive [inhibitor, single point] | 
O=C1C2Cc3c([nH]c4ccccc34)C(c3ccccc3)N2C(=O)C2Cc3c([nH]c4ccccc34)C(c3ccccc3)N12 (stereo not drawn) |  | inactive: 4.31% [at 13.5 µM]
CCCNc1ccc(S(=O)(=O)N(C(C)C)C(C)C)cn1 | inconclusive [inhibitor, partial curve, poor fit] | 
COc1ccc(-c2nc3cnc(N4CCNCC4)nc3n(C)c2=O)cc1 | inconclusive [inhibitor, partial curve] | 
CC1CCCN(C(=O)c2ccc(COc3ccccc3Br)cc2)C1 (stereo not drawn) | active: 25.1 µM | 
Cc1nc2ccccc2c(=O)n1NC(=O)c1ccc([N+](=O)[O-])cc1 |  | inactive: 1.74%
CCOC(=O)N1CCN(C(=S)NC(=O)C23CC4CC(CC(C4)C2)C3)CC1 | inconclusive [inhibitor, single point] | 
CC(C)=CC(=O)NCc1c(Cl)cccc1-n1cccc1 |  | inactive: -1.48%
COCc1cc(Sc2c(Cl)cccc2Cl)nc(-c2ccccc2)n1 |  | inactive: 0.956%
COc1ccccc1CNC(=O)[C@@H]1CCCN1S(=O)(=O)c1ccc(C)cc1 |  | inactive: 1.29%
Cc1cccc2nc(CSc3nc4ccccc4o3)cn12 | inconclusive [inhibitor, single point] | 
Clc1ccc(OCCSc2nnnn2C2CCCCC2)cc1 | inconclusive [inhibitor, partial curve] | 
COCCn1nnnc1C(c1cc2ccc(OC)cc2[nH]c1=O)N1CCc2ccccc2C1 (stereo not drawn) | active: 25.1 µM | 
